Consider 34 variants from the RNAGym collection of RNA variant scans (doi:10.1093/nar/gkz1192).

The source gives no read counts; variants with many changes may rest on few reads.

B1: CPEB3 Ribozyme (parent)
chain: UAACAGGGGGCCACAGCAGAAGCGUUCACGUCGCAGCCCCUGUCAGAUUCUGGUGAAUCUGCGAAUUCUGCUGUAUAUCUC

Variants of B1 are the subject of this data set. As to the kind of experiment: self-cleavage, relative activity (ratio to wild type); higher = more cleavage; in vitro, sequencing. In a few lines:
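Relative activity compares each variant's cleaved/total read fraction with that of the unmutated ribozyme. To get these fractions, barcoded CPEB3 ribozyme libraries from rounds of error-prone PCR were transcribed with T7 RNA polymerase for 5 hours at 37°C and then given 15 min of DNase I treatment before EDTA was added. The RNAs were reverse transcribed with template switching and sequenced on Illumina, and DNA sequencing linked barcodes to variants. A minimum of 5 reads applied, and three batches were averaged.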
Regarding UAACAGGGGGCCACAGCAGAAGCGUUCGCGUCGCAGCCCCUGUCAGAUUUUGGUGAAUCUGCGAAUUCCGCAGAAUACCUC, the self-cleavage was determined as 0.12. With UAACAGGGGGCCACAGCAGAAGCGUUCGCAUCGCAGCCCCUGUCAGAUUCUGGUGUACCUGCGAACUCUGCUGUAUACCUC the figure was 0.04; with UAACAGGGGGCCACAGCAGAAGCGUUCGCGUCGCAGUCCCUGUCAGAUUCUGGUGAAUCUGCGAAUUCUGCUGUAAAUCUC, 0.4. With UAACAGGGGGCCACAGCAGAAGCGUUCGCGUCGCAACCCCUGUCAGAUUCUGGUGAAUCUGCGAAUUCUGCUGUGUAUCUC the figure was 0.16; with UAACAGGGGGCCACAGCAGAAGCGUUCGCGUCACAGCCCCUGCCAGAUUCUGGUGAAUCUGCGAAUUCUGCUGUAUGACUC, 0.06; with UAACAGGGGGCCACAGCAGAAGCGUUCGCGUCCCAGCCCCUGUCAGAUUCUGGUGAAUCUGCGAAUUAUGCUGUAUAACUC, 0.05. With UAACAGGGGGCCACAGCAGAAGCGUUCGCGUCGCAGCCCGUGUCAGGUUCUGGUGAAUCUGCGAAUUCUGCGGUAUAUCUC the figure was 0.48; with UAACAGGGGGCCACAGCAGAAGCGUUCGCGUCGCAGCCCUGGUCAGAUUCUGGUGAAUCUGCGAAUUCUGCUGUAAAUCUC, 0.19; with UAACAGGGGGCCACAGCAGAAGCGUUCGCGUCACAGCCCCUGUCAGAUUCUGGUGAAUCUACGAAUUCUGCUGCAUAUCUC, 0.17.

Regarding UAACAGGGGGCCACAGCAGAAGCGUUCGCGUCGCAGCCCAUGUCAGAUUCUGGUGGAUCUGCGAAUUCUGCUGUAUAUCUC, the self-cleavage is 0.05. With UAACAGGGGGCCACAGCAGAAGCGUUCGCGUCGAAGCCCCUGUCAGAUUCCUGUGAAUCUGUGAUUACUGCUGUAUAUCUC the figure was 0.19; with UAACAGGGGGCCACAGCAGAAGCGUUCGCGUCGCAGCACCUGUCAGAUUCUGGUGAAUCUGCGAAUUCUGCUGUGUAUCUC, 0.24. With UAACAGGGGGCCACAGCAGAAGCGUUCGCGUCACAGCCCCAGUCAGAUUCCGGUGAAUCUGCGAAUUCAGCUGUAUAUCUC the figure was 0.06; with UAACAGGGGGCCACAGCAGAAGCGUUCGCGUCGGAGCCCCUGUCAGAUUCUGGUGGGUCUGCGAAUUCUGCUGUAUAUCUC, 0.07; with UAACAGGGGGCCACAGCAGAAGCGUUCGCGUCGCAGCCCUUUUCAGAUUCUGGAGAAUCUGCGAAUUCUGCUGUAUAUCAC, 0.09. Regarding UAACAGGGGGCCACAGCAGAAGCGUUCGCGUCGCAACCCCUGUCAGAUUCUGGUGAUUCUGCGAGUCAUGCUGUAUAUCUC, the self-cleavage amounted to 0.02. In the case of UAACAGGGGGCCACAGCAGAAGCGUUCGCGUCGGAGCCCCUGUCAGAUUCUGGCGAAUCUGCGAAUUCUGCUGUAUUUCCC, the self-cleavage stood at 0.07. With UAACAGGGGGCCACAGCAGAAGCGUUCGCGUCGCAGACCCUGUCAGAUUCUGGUGAAUCAGCGAGUUCUACUGUAUAUCUC the figure was 0.08; with UAACAGGGGGCCACAGCAGAAGCGUUCGCGUCGUAGCCCCUGUCAGAUUCUGGUGGAUCUGCGAAUUCUGCUGUAUAUCCC, 0.12; with UAACAGGGGGCCACAGCAGAAGCGUUCGCGUCGCAACCCCUGUCAGAUACUGGAGAAUCUGCGAAUUCUGCUGUAUAUCUC, 0.13. With UAACAGGGGGCCACAGCAGAAGCGUUCGCGUCACAGCCCCUGUCAGAUUCUGGGGAAUCUGCGAAUUCUGCUGUAUAUCUC the figure was 0.14; with UAACAGGGGGCCACAGCAGAAGCGUUCGCGUUGCAGCCCCUGUCAGAUUCUGGUGAAUCUGCGAAUUCCGCUGUAUAUCUC, 0.32. Next, UAACAGGGGGCCACAGCAGAAGCGUUCGCGUCGAAGCCCCUGUAAGAUUCUGGUGUAUCUGCGAAUUCUGCUGCAUAUCUC: 0.08. Take UAACAGGGGGCCACAGCAGAAGCGUUCGCGUCGCAGUCCCUGUCAGAUUCUGGUGAAUCUGCGGAUUCUGCUGUAUAUCUC: the self-cleavage worked out at 0.18. Next, UAACAGGGGGCCACAGCAGAAGCGUUCGCGUCCCGGCCCCUGUCAGAUUCUGGAGAAUCCGCGAACUCUGCUGUAUAUCUC: 0.12; UAACAGGGGGCCACAGCAGAAGCGUUCGCGUCGCAGCCCUUGUCAGAUCCUGGUGAAUCUGCGAAUUCUGCUGUAUAUCUC: 0.44.

As for UAACAGGGGGCCACAGCAGAAGCGUUCGCGUUGCAGCCCCUGUCAGAUUCUGGUGAACCUGCGAAUUCUGCUGUAUAUCUC, the self-cleavage amounted to 0.06. With UAACAGGGGGCCACAGCAGAAGCGUUCGCGUCGCAGUCCCUGUCAGAAUCUGGUGAAUCUGCGAAUUCUGCAGUAUAUCUC the figure was 0.16. Consider UAACAGGGGGCCACAGCAGAAGCGUUCGCGUCGCAGCCCCUGUCAGAUUCUGGUGAAUCUGUGAAUUCCGCUGUAUAUCUC, for which the self-cleavage came to 0.06. Turning to UAACAGGGGGCCACAGCAGAAGCGUUCGCGUCGCAGCCCUUGCCAGAUUCUGGUGAGUCUGCGAAUUCUGCCGUAAAUCUC, the self-cleavage stood at 0.04.

As to UAACAGGGGGCCACAGCAGAAGCGUUCGCGUCGCAACCCCUGUCAGAUUCUGGAGAAUCUGCGAAUUCUGCUGUAUAUCUC, the self-cleavage is 0.14. With UAACAGGGGGCCACAGCAGAAGCGUUCGCGUCGCAGCUCCUGUCAGACUCUGGUGAAUCUGCGAAUCCUGCUGCAUAUCUC the figure was 0.1. Next, UAACAGGGGGCCACAGCAGAAGCGUUCGCGUCGCAGACCCUGUCAGAUUCUGGUGAAUCUGCGAAUUCCGCUGUAUAUCUC: 0.11. With UAACAGGGGGCCACAGCAGAAGCGUUCGCGUCGCAGCCCCUGUGAGAUUCUGGUGAAUCCGCGAAUUCUGCUGUAUAUCUC the figure was 0.12.
